These are yes or no findings as the source states them, for the method shown. In cells and extracts the contact can be indirect. Some entries that bind do so weakly or less than the wild type. Sequences can lack the tags named with a protein. One block for each molecule: values may come before it.
Key:
[1] = target: T1, Flag-HDAC7 (histone deacetylase 7) (UniProt Q8WUI4); assay: co-IP; Flag-HDAC7 or Flag-β-catenin precipitated with anti-Flag agarose from whole cell lysates of EC109 and HEK-293T cells (8 μg per 1 mg lysate, 4 °C, 4 h; washed 4 times with NETN buffer); partner detected by Western blotting
T1 sequence: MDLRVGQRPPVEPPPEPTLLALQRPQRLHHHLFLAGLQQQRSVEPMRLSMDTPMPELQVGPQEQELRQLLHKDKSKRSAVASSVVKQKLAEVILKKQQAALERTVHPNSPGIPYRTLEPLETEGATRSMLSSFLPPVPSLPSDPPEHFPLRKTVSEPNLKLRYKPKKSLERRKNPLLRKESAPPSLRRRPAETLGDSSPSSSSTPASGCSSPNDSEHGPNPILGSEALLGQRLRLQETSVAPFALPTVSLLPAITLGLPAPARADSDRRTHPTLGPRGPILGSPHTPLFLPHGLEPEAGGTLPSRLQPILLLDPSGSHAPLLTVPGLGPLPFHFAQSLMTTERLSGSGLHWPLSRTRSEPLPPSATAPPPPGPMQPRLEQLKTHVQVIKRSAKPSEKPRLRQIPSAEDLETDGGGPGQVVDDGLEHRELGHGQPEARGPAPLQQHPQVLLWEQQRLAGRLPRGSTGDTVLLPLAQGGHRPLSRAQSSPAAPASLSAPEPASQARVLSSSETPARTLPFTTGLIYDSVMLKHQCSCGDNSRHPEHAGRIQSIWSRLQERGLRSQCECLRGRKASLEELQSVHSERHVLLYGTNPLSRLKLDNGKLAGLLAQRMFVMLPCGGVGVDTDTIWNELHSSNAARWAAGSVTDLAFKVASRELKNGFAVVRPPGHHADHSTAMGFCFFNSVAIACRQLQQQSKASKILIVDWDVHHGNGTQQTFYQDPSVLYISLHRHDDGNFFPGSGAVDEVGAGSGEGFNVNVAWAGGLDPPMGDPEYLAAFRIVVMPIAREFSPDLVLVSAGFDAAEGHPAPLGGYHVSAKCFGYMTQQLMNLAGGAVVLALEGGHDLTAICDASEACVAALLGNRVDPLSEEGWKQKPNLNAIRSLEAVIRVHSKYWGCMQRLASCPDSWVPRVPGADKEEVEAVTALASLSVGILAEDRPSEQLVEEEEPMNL

The chains behind the UniProt entries cited, without tags or fusion partners.
UniProt P35222: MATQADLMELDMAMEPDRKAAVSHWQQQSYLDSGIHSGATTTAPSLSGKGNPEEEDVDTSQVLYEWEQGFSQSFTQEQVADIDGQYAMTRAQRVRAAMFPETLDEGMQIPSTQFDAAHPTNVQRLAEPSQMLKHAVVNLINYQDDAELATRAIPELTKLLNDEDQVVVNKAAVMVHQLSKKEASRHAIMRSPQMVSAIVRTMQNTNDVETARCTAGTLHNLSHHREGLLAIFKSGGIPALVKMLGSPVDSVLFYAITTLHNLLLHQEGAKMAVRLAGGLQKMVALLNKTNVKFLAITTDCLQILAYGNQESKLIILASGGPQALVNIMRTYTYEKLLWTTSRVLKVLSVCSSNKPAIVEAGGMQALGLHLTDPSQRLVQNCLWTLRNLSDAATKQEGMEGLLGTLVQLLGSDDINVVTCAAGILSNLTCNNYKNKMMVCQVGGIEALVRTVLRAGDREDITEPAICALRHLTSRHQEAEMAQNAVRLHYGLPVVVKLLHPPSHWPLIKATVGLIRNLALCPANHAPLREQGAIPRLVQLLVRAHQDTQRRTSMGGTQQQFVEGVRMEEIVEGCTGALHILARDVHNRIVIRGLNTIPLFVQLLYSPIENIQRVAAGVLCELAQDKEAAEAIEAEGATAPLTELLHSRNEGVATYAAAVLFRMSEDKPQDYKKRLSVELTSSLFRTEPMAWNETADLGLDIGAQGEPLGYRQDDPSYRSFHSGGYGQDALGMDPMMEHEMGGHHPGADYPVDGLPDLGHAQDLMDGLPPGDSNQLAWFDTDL

Flag-β-catenin = Flag-β-catenin (UniProt P35222); assay: as above

binding [1]: binds
Molecule: β-catenin (detected in the anti-Flag precipitate of Flag-HDAC7) (from UniProt P35222 1-781)

binding (Flag-β-catenin): binds
B1: HDAC7 (detected in the anti-Flag precipitate of Flag-β-catenin) (enzyme, UniProt Q8WUI4 1-952)
chain: T1 sequence

— publication PMC9513894
